# Reference: the RNAGym collection of RNA variant scans (doi:10.1073/pnas.2313332121)
# This sample is rich in variants without activity.
# B1: TPR 5TU (parent)
# chain: GGAUCUUCUCGAUCUAACAAAAAAGACAAAUCUGCCACAAAGCUUGAGAGCAUCUUCGGAUGCAGAGGCGGCAGCCUUCGGUGGCGCGAUAGCGCCAACGUUCUCAACUAUGACACGCAAAACGCGUGCUCCGUUGAAUGGAGUUUAUCAUG
# Variants of: B1
# Test: polymerase ribozyme fitness, log enrichment relative to wild type (log ratio); higher = more active; in vitro selection for triplet polymerase activity
# Summary of the method: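 Fitness measures genotype enrichment against wild-type enrichment on a logarithmic scale, with inverse-variance-weighted averaging of replicates. The logarithm is base 2, and genotypes were kept only with ≥10 input reads and ≥1 read per output in Illumina sequencing. The sequenced libraries came from one triplicate in vitro selection round, including frozen incubation at −7 °C, of PCR-built, transcribed mutant libraries of each subunit of a heterodimeric triplet polymerase ribozyme.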
row,Variant,polymerase ribozyme fitness (log ratio)
1,A16C C75A C85A A119C,≤ -4.2
2,A17C A24U C32A G50A C51A A52G C85U C103U,≤ -4.2
3,A17G A21C A28C G74C G86C C99G A107U U127A G143U,≤ -4.2
4,A16G U44A G74U C93U U102G U144C,≤ -4.2
5,A16G C36G U55A G68A C76G C93G A150G,≤ -4.2
6,A17C G84C A142G,-3.21
7,A16U A29G G88A,≤ -4.2
8,A17G G25C A49C C93U A107G C116A,≤ -4.2
9,A16C A19C C57G G88C G92U G143C,≤ -4.2
10,A16G A20U C118U A137U,≤ -4.2
11,A17G A52C C54U G86A C131G A142G,≤ -4.2
12,A16U A52G U104G U134G,≤ -4.2
13,A16U G70C G81U A89G,≤ -4.2
14,A16G A19G G84U A122U,-3.73
15,A17G C54U G58A A60C U61G C79A G92U U127G,≤ -4.2
16,A17G A28U G83C U134G,≤ -4.2
17,A16U C35U A49U G59A C75U A91G U135C U145A,≤ -4.2
18,A17C A19G C32A A52U G92U,≤ -4.2
19,A16G G100C C116A,≤ -4.2
20,A16U C18U A28U G34A G88A A89U C125A,≤ -4.2
21,A17G C35A G67C C96U C114U C116U,≤ -4.2
22,A17G G84U G126A,-1.39
23,A17G C93G C95U,≤ -4.2
24,A16G A49C G50C A150G,≤ -4.2

row,Variant,polymerase ribozyme fitness (log ratio)
1,A17C A26C C87U,-1.83
2,U15G U77A U78G G88U C149G,≤ -4.2
3,A17C A24U U45A A49C A64G C76G G83C C95A U148A,≤ -4.2
4,A16U A20C A91U G141U,≤ -4.2
5,A17U A19C C38A G42C U56A U78G A113U C132G A142G U148A,≤ -4.2
6,A16C A49U C85A G126U U139G,-3.47
7,A16C C27U A47C A60C A91U C103A C125U A138G G141A A142U U144C,≤ -4.2
8,A16C A23C C85G,≤ -4.2
9,A17G A40C C85U C125A G126U,≤ -4.2
10,A16G A26C G58A G86U U90A A97U C105A C149G,≤ -4.2
11,A16G A30U U90G G152U,≤ -4.2
12,A17G A49C C54U G80C C131G,≤ -4.2
13,A16C G48U C96U A113C,≤ -4.2
14,A16U C27U A29C A49G C95U C105G U146A,≤ -4.2
15,A16G C36U A49C G88A C93G A107U G140U G143C,≤ -4.2
16,A16G C76A G84U A121G A122G U146A,≤ -4.2
17,A16U A64U A66U G94A C108U A150G,≤ -4.2
18,A16U G25U G42U U55A C96G C99U U148A,≤ -4.2
19,A17G C18A A29C A37C C96A A107G G124C U151G,≤ -4.2
20,A16C A20U C51A C57U C95G,≤ -4.2
21,U15G A40U U56C C57A G94A C125G G140U,≤ -4.2
22,A16U C36A C116G U134A,≤ -4.2
23,A17G C35U U53A G94A,-1.28
24,A17G A37G C54A C57U A91U C125G C132U G143A,≤ -4.2

row,Variant,polymerase ribozyme fitness (log ratio)
1,A17C G62U A98U G136U G140U,≤ -4.2
2,A16C A19G A64U C69U G92C C99G A119U G143C,≤ -4.2
3,A16C A91C U101C,≤ -4.2
4,A16U C103G,-3.31
5,A16U C79G,≤ -4.2
6,A16C G42U U56C G81U C85G,≤ -4.2
7,A17C C35A A47C C51G G74U C75A,≤ -4.2
8,A16G U31A G81A A89C C96A U104C G136U,≤ -4.2
9,A16U G25U A49G U77C A106C,≤ -4.2
10,A16U G25A C57A G84C U144C,≤ -4.2
11,A16G U31C A91U C93G,≤ -4.2
12,U15G G25U U33C A66G C76G G81C C87U,≤ -4.2
13,A16U G59A U78C C149G,≤ -4.2
14,A17G U53C A73G U139A A142U U146G,≤ -4.2
15,A17G C27A G140C G143U U144A,≤ -4.2
16,A17G G50U,0.372
17,A16U A19G U31A C38U G42C U44G G59U C96G,≤ -4.2
18,A17G A19U U53A U56G A60U C69G U111G A142G,≤ -4.2
19,U15G A29U A49C C76A G84U U104G,≤ -4.2
20,A16C A17G C96G C118U,-1.74
21,A17G A24U A30U U77G G126C,≤ -4.2
22,A16C A22U G62A G74A G81C A106G G141C,≤ -4.2
23,A17G C57A C85G G88A G140C G141U,≤ -4.2
24,A16U G124U,-2.37

row,Variant,polymerase ribozyme fitness (log ratio)
1,A17G C63A C79U G86A A150G,≤ -4.2
2,A17C G46A G70A G81A G86C U135G,≤ -4.2
3,A17G G25C U33G A52U U77G G81U C105G,≤ -4.2
4,A16U U77A G84A U102C U144C U148A C149G,≤ -4.2
5,A17G C36G C79A C95U A97U G117U G126U,-4.08
6,A17G G42C C43A C85A G143U,≤ -4.2
7,A16C A17C A26U A91U G128C A137C U148G C149G,≤ -4.2
8,A17C A20U A21U A24G G80A C108A,≤ -4.2
9,A16U U53A G80U C85U G152U,≤ -4.2
10,A17G G50C A110C,≤ -4.2
11,U15G A47C G83C,-1.85
12,A16U A28C C54U G71U G92C C131U G136C,≤ -4.2
13,A16U A23C A24C C69A G70C C118U U139A U145G,≤ -4.2
14,A17G A47C C87A G88C A91U U111A,≤ -4.2
15,A16C C32U C72G C75A G86C C87G C99U A107U A120U G124U,≤ -4.2
16,U15G A30C G42U U56G C69A C123U G141U,≤ -4.2
17,A17G A26C A40C G86U A98C C99A C108G A120G,≤ -4.2
18,A16U C85A,-2.74
19,A16U C85G,-3.36
20,A16C A24U G50C U55G C85A A119U,≤ -4.2
21,A16U C35A G70A,≤ -4.2
22,A16G C43U C79U C132U,≤ -4.2
23,A16G C93A A97G,≤ -4.2
24,A16U C38A C75A C114U G143U,≤ -4.2

row,Variant,polymerase ribozyme fitness (log ratio)
1,A17G A49C G59U G92A U102G U135G,≤ -4.2
2,A17C C38G C75G G84U C103G G124C,≤ -4.2
3,A16C A19C C51U A64G C72A U77A G84U,≤ -4.2
4,A16G A19U G48A C54A U101G C108A A137C A150C,≤ -4.2
5,A16U A19U,-2.39
6,A17U A19G A22U C93A,-4.01
7,A17G A39C G68C C93G,≤ -4.2
8,A17G A49U G71C C79A A106U,≤ -4.2
9,A17C G48C C93G,-3.01
10,A16C U82G,-1.06
11,U15G G71A C93U,≤ -4.2
12,A16U A17C G50A U56A C87U G88A G117U,≤ -4.2
13,A17C C36U A47G C54A C85A C118A U127G U134C U151A,≤ -4.2
14,U15G A49C C51G G92A C95U C105U,≤ -4.2
15,A16U C38U A39U U53G U55A U90C C96G U101G C114U,≤ -4.2
16,A16G A21C C27G G59A G67C U145G,≤ -4.2
17,A17C U55A U56A C85G A115G,-3.1
18,A16U C27U A30U G88U A106G C129G U148G,≤ -4.2
19,A16U A22G A29U G80C C125U,≤ -4.2
20,A16U U77A G92C C96U,≤ -4.2
21,A16U A28U C79A G84A G86A,≤ -4.2
22,A17C G74C C87U G92C C105G G136U,≤ -4.2
23,A17G G48C G94A C95U,-3.29
24,A16C U78C G83U G86A A121C,≤ -4.2

row,Variant,polymerase ribozyme fitness (log ratio)
1,A17C C35U A60G G80A C87A A98G U151G,≤ -4.2
2,A16U C38U G58C U82C C95A U109A C125G U134C,≤ -4.2
3,A16C C125U U148G,≤ -4.2
4,A16C G42U G83A,≤ -4.2
5,A17G A41U A64G G68C,≤ -4.2
6,U15G A30U U44A A49G C54A C76U G88A A110G,≤ -4.2
7,A17C A28U G46U A98U A107G A113G G133U,≤ -4.2
8,A17G A47C C85U G133U,≤ -4.2
9,U15G G42U G88C,≤ -4.2
10,A16C C38A C72G C93U,≤ -4.2
11,A16G C51G U56A C95U A106C C114U U144C U145C U146A,≤ -4.2
12,A17C A22G U44A C75G U90G C93G C103A,≤ -4.2
13,A17G C96G,-1.29
14,A17G C96U,0.456
15,A16C G50C A89G C95A A110U C116G,≤ -4.2
16,A16U U56A C57U G68A C87A,≤ -4.2
17,A17C A20C C108G,≤ -4.2
18,A16G A26U C35A C51G U61A C72G C93U A120U C129G,≤ -4.2
19,A16U A52G A64U U77A C87A G143C,≤ -4.2
20,A16G C43A C87U C95A C99U G100A G128A,≤ -4.2
21,A17U A20C C57A G71U C105G G141A,≤ -4.2
22,A17C U33A C76U C93U U145G,≤ -4.2
23,U15G A37G A49U U82G C85G G92A C99A A138U C149G U151G,≤ -4.2
24,A17G A39G A66G C72U,≤ -4.2

row,Variant,polymerase ribozyme fitness (log ratio)
1,A16G G50A A142C,-3.93
2,A16U A24C G80U,≤ -4.2
3,A16C A150U,-0.0438
4,A16U C18U C51A C93U A106C C116G,≤ -4.2
5,A16C C18G A40U U77C C85U C103A,≤ -4.2
6,A16C C18G A47U G92A U101A,≤ -4.2
7,A16U C18G A52G G84A C85G G92C G143A,≤ -4.2
8,A16U A47G G92A C96U U111G C114U,≤ -4.2
9,A16C A22U A89U C93U,-3.06
10,A17G C96A A97G U101C U148C,-3.67
11,A17C A66C G70A G88A C93U G94C U148A,≤ -4.2
12,A16G A30U C38A C96G A97C C105G A107U A110U,≤ -4.2
13,A17C G48A A49C G86C G100C,≤ -4.2
14,A16U A28U G34A C35U U55G,≤ -4.2
15,A16C U144G,-0.499
16,A17C A24G A47C C72U G88U A120C A121G,≤ -4.2
17,A16C A21G C76G C85A,≤ -4.2
18,A16U A17C G25C U56A A60C G84C U90C C95A,≤ -4.2
19,U15G C87A,≤ -4.2
20,A16U A47G C51U C95A C114U,-3.93
21,A16G U44A C93G U144A U148A,≤ -4.2
22,A17C U55A A60C U77G G88C C131A U135G U145G U148A,≤ -4.2
23,A16G C18G A49U G80A C131U U135G,≤ -4.2
